Assay [1] has as its system CD4 T cells of healthy donors (HD). Kind of assay: IL-2 induced PStat5 nuclear translocation. The assay is classed as cell-based, human. The protocol: FIG. 10: PLA2sGIB inhibits IL-2 induced PStat5 nuclear translocation in CD4 T cells of healthy donors (HD): Resting CD4 T cells purified from 4 healthy donors were treated for 30 minutes at 37° C. with 3% or 1% of plasma from 5 VP (VP63, VP68, VP69, VP74 and VP75) and from 3 HD used as control. When indicated they were stimulated with 2 nM IL-2 for 15 minutes at 37° C. The percentage of cells positive for nuclear PStat5, with mean and SD, in whole CD4 T cells (a) and in CD4+ CD25+ T cells (b), before (blue points) and after IL-2 stimulation (red points) are shown. Intracellular localisation of PStat5 was observed using Laser Scanning Confocal Microscopy (LSM 700, Zeiss) after indirect staining with rabbit anti human PStat5 (pY694) followed by donkey anti rabbit IgG-Die light 405. Total CD4 T cells were stained with goat anti human b-Tubulin followed by donkey anti goat IgG-AF555. CD25+CD4 T cells were targeted with a mouse anti human CD25 followed by donkey anti mouse IgG-AF488.

Assay [2] has the same test system. Kind of assay: IL-4 induced PStat6 nuclear translocation. The assay is classed as cell-based, human. As for the experimental part: FIG. 11: PLA2sGIB inhibits IL-4 induced PStat6 nuclear translocation in CD4 T cells of healthy donors (HD): Resting CD4 T cells purified from 4 healthy donors were treated for 30 minutes at 37° C. with 3% or 1% of plasma from 5 VP (VP63, VP68, VP69, VP74 and VP75) and from 3 HD used as control. When indicated they were stimulated with 2 nM IL-4 for 15 minutes at 37° C. The percentage of cells positive for nuclear PStat6, with mean and SD, in whole CD4 T cells, before (blue points) and after IL-2 stimulation (red points) are shown. Intracellular localisation of PStat6 was observed using Laser Scanning Confocal Microscopy (LSM 700, Zeiss) after indirect staining with rabbit anti human PStat6 (pY694) followed by goat anti rabbit IgG-AF488. Total CD4 T cells were stained with mouse anti human a-Tubulin followed by goat anti mouse IgG-AF647.
IL-7 and IL-2 are members of the gamma c cytokine family. To confirm that unresponsiveness to this cytokine may be linked to gamma c, we tested the response to IL-4. IL-4 response was measured by following the IL-4 induced NT of pSTAT6 (FIG. 11).

B1: PLA2 GIB: secreted phospholipase A2 group IB; in Example 9 applied as plasma of viremic patients (protein, UniProt P04054 23-148, looked up)
Phospholipase A2: AVWQFRKMIKCVIPGSDPFLEYNNYGCYCGLGGSGTPVDELDKCCQTHDNCYDQAKKLDSCKFLLDNPYTHTYSYSCSGSAITCSSKNKECEAFICNCDRNAAICFSKAPYNKAHKNLDTKKYCQS
modifications: in patient plasma
On to B1, for which the “inhibition of IL-2-induced NT pSTAT5” value is recorded as “highly significant” in assay [1] (1% plasma of viremic patient, whole CD4 T cells); “completely inhibited” in assay [1] (1% plasma of viremic patients, CD4+ CD25+ T reg lymphocytes); “total” in assay [1] (3% plasma of viremic patient, whole CD4 T cells). Moreover, the “inhibition of IL-4 response (IL-4 induced NT of pSTAT6)” value in assay [2] (1% plasma) is reported as “greatly”; in assay [2] (3% plasma) it was “completely”.

(Values after patent US11365264B2, “Therapeutic methods and compositions” (INSTITUT PASTEUR, priority 2013, dated 2022).)
